{
  "source": "PubChem BioAssay AID2546",
  "about": "(National Center for Advancing Translational Sciences (NCATS), 2010)",
  "note": "Among all 310,000 compounds or so, about 11,000 (3.5%) were called active. This list was built around the results that the source calls inconclusive (neither active nor inactive); the mix of calls is not that of the screen. Calls follow the shape of the dose curve; as a rule, active = well fitted inhibition curve with a large enough effect; inconclusive = small, poorly fitted or top-dose-only effect, or effect the other way; inactive = flat fitted curve, though single readings scatter. No potency is given beside an inconclusive call; the fits are too rough. % is scaled to controls: 0 for no effect and ±100 for the full control effect; potency is read from the fitted curve at half-maximal effect; tags tell the direction and shape of the fitted curve.",
  "data": [
    {"assay": "VP16 counterscreen qHTS for inhibitors of ROR gamma transcriptional activity;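 also: Gal4-VP16 expression switched on by copper sulfate through the metallothionein promoter; nearly all actives have a fitted effect of over 50% in size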", "conditions": "Drosophila S2 Gal4-VP16 UAS-luciferase, luminescence, 20 h; activity, negative = inhibition: at 53.6 µM (top of the series)", "values": [
      {"smiles": "CC(=O)Nc1ccc(S(=O)(=O)N(C)CC(=O)N/N=C/c2ccncc2)cc1", "activity, negative = inhibition": "inactive: -7.18%"},
      {"smiles": "Nc1[nH]n2c(=O)cc(-c3ccccc3)nc2c1N=Nc1ccc2c(c1)OCO2", "activity, negative = inhibition": "inactive: -11.8%"},
      {"smiles": "COc1ccc(OC)c(CNS(=O)(=O)c2cc(CN3C(=O)c4cccnc4C3=O)ccc2OC)c1", "Potency": "inconclusive [inhibitor, single point]"},
      {"smiles": "Cc1ccccc1N(C)S(=O)(=O)c1nnc(NC(=O)c2ccco2)s1", "activity, negative = inhibition": "inactive: 8.56%"},
      {"smiles": "COc1ccc(Cl)cc1N1C(=O)CC(Sc2ccccc2N)C1=O", "note": "(stereo unspecified)", "activity, negative = inhibition": "inactive: -0.813%"},
      {"smiles": "CCCCc1ccc(NC(=O)COc2ccc(C(=O)Nc3ccccc3C)cc2)cc1", "Potency": "active: 11.2 µM"},
      {"smiles": "CCCCc1ccc(-n2c(Cc3cccs3)n[nH]c2=S)cc1", "Potency": "inconclusive [inhibitor, partial curve, poor fit]"},
      {"smiles": "CC1(C)CC(=O)C(C=Nc2cc(C(=O)c3ccccc3)ccc2N)=C(O)C1", "Potency": "inconclusive [inhibitor, single point]"},
      {"smiles": "CC(C)Oc1ccc(C(=O)/C=C2/C(=O)Nc3ccccc32)cc1", "Potency": "inconclusive [inhibitor, single point]"},
      {"smiles": "COc1ccc(NC(=O)CN2C(=O)C(C)SC(C)C2=O)cc1", "note": "(stereo unspecified)", "Potency": "inconclusive [activator, partial curve]"},
      {"smiles": "COc1ccc(/C=N/n2cc(-c3ccc(OC)cc3)nc2N)cc1", "Potency": "inconclusive [inhibitor, single point]"},
      {"smiles": "Clc1ccc(C[n+]2csc3ccccc32)cc1", "Potency": "inconclusive [inhibitor, single point]"},
      {"smiles": "COc1cc([N+](=O)[O-])ccc1NC(=S)NNC(=O)CCC(=O)Nc1ccccc1Cl", "activity, negative = inhibition": "inactive: -5.94%"},
      {"smiles": "Cc1nc2ccc(NC(=O)c3ccc(Cl)c([N+](=O)[O-])c3)cc2s1", "Potency": "inconclusive [activator, full curve, poor fit]"},
      {"smiles": "O=C(C1=C[C@@H](c2ccc(C(F)(F)F)cc2)C[C@@H](OCc2ccc(CO)cc2)O1)N1CCN(Cc2ccc3c(c2)OCO3)CC1", "Potency": "inconclusive [inhibitor, partial curve]"},
      {"smiles": "Cc1c(CCC(=O)N[C@@H](CCCNC(N)=O)C(=O)O)c(=O)oc2cc3oc4c(c3cc12)CCCC4", "Potency": "inconclusive [inhibitor, partial curve, poor fit]"},
      {"smiles": "Clc1ccc(-c2cnc3ccccc3n2)cc1", "Potency": "inconclusive [activator, single point]"},
      {"smiles": "COc1ccc(C2/C=C\\CN(C(=O)c3ccc(C)cc3)CC(=O)N2Cc2ccc(F)cc2)cc1", "note": "(stereo unspecified)", "Potency": "inconclusive [inhibitor, single point]"},
      {"smiles": "Cc1ccc(NC(=S)N2CC(C)OC(C)C2)cc1C", "note": "(stereo unspecified)", "Potency": "inconclusive [inhibitor, single point]"},
      {"smiles": "Cc1cc(O)c(C(C)C)cc1NS(=O)(=O)c1ccccc1", "Potency": "inconclusive [inhibitor, single point]"},
      {"smiles": "Cc1cc(-c2c(C)[nH]n(-c3ccccc3)c2=O)n[nH]1", "Potency": "active: 1 µM"},
      {"smiles": "Cn1c2ccccc2n2c(=O)cc(-c3ccccc3)c(C#N)c12", "Potency": "inconclusive [inhibitor, single point]"},
      {"smiles": "Fc1ccc(NC(=S)N2CCc3ccccc32)cc1", "Potency": "inconclusive [inhibitor, single point]"},
      {"smiles": "O=C(Nc1ccc(Oc2c(F)c(F)c(F)c(F)c2F)cc1)OC1CCN2Cc3ccccc3N=C12", "note": "(stereo unspecified)", "Potency": "inconclusive [inhibitor, single point]"},
      {"smiles": "Cc1nn(CCc2nn[nH]n2)c2nc(-c3ccc(Br)cc3)cc(C(F)(F)F)c12", "Potency": "inconclusive [inhibitor, single point]"},
      {"smiles": "CCOC(=O)c1ccc(CSc2nncn2N)o1", "activity, negative = inhibition": "inactive: 2.99%"},
      {"smiles": "Cc1cccc(N2CCN(C(=O)Cn3sc4nc(C)cc(C)c4c3=O)CC2C)c1", "note": "(stereo unspecified)", "Potency": "active: 12.6 µM"},
      {"smiles": "CC(C)c1ccc(NS(=O)(=O)c2ccc(-n3cccn3)cc2)cc1", "Potency": "inconclusive [inhibitor, single point]"},
      {"smiles": "CCn1c(=S)[nH]c2ccccc21", "Potency": "inconclusive [inhibitor, single point]"},
      {"smiles": "O=C(/C=C/c1ccccc1)NCCCNC(=O)/C=C/c1ccccc1", "activity, negative = inhibition": "inactive: -16.1%"},
      {"smiles": "Fc1ccccc1/C=N/NC(=S)Nc1ccc(Cl)cc1Cl", "Potency": "active: 1.26 µM"},
      {"smiles": "Cc1cc(C)c2nc(C)cc(Nc3ccc(C(=O)N(C)C)cc3)c2c1", "activity, negative = inhibition": "inactive: -7.04%"},
      {"smiles": "Cc1ccc(C)c(S(=O)(=O)c2c(N)n(/N=C/c3ccco3)c3nc4ccccc4nc23)c1", "Potency": "inconclusive [inhibitor, single point]"},
      {"smiles": "COCCCNC(=S)NNC(=O)c1cc(-c2ccncc2)nc2ccccc12", "Potency": "inconclusive [inhibitor, partial curve]"},
      {"smiles": "CC(C(=O)N(C)C1CCS(=O)(=O)C1)N1C(=O)/C(=C/c2ccc(F)cc2)SC1=S", "note": "(stereo unspecified)", "Potency": "active: 15.8 µM"},
      {"smiles": "O=C(CN1C(=O)NC2(CCCc3ccccc32)C1=O)NCC(F)(F)F", "note": "(stereo unspecified)", "activity, negative = inhibition": "inactive: 3.81%"},
      {"smiles": "Fc1ccc(/C=C2\\CCCC3=C2Nc2ncnn2C3c2ccc(F)cc2)cc1", "note": "(stereo unspecified)", "activity, negative = inhibition": "inactive: -6.9%"},
      {"smiles": "COc1ccc(CCN2C(=O)CSC2=Nc2ccc(C(C)C)cc2)cc1OC", "Potency": "inconclusive [inhibitor, single point]"},
      {"smiles": "COc1ccc(CNC(=S)N/N=C/c2ccc(OC)c(OC)c2)cc1", "Potency": "inconclusive [inhibitor, single point]"},
      {"smiles": "CCNc1ccc(S(=O)(=O)N(C)C)cc1NCC(=O)Nc1ccc(Br)cc1F", "Potency": "inconclusive [inhibitor, single point]"},
      {"smiles": "CC(=O)N1c2ccc(S(=O)(=O)N3CCC(C(=O)N4CCC(C)CC4)CC3)cc2CC1C", "note": "(stereo unspecified)", "activity, negative = inhibition": "inactive: -1.42%"},
      {"smiles": "COC(=O)CSc1[nH]c2ccc(Br)cc2c1[N+](=O)[O-]", "activity, negative = inhibition": "inactive: 18%"},
      {"smiles": "CCOC(=O)c1cc2sc(C)cc2n1CC(=O)NCc1ccc(F)cc1", "Potency": "inconclusive [inhibitor, single point]"},
      {"smiles": "O=C(CCCCl)Nc1c2c(nn1-c1ccccc1)CSC2", "activity, negative = inhibition": "inactive: 3.42%"},
      {"smiles": "Cc1cc(-c2nn(-c3ccccc3F)cc2CN(C)CC(O)CO)c(C)s1", "note": "(stereo unspecified)", "activity, negative = inhibition": "inactive: -12.9%"},
      {"smiles": "CC(C)(C)OC(=O)N1CCN(C(=O)c2[nH]cnc2C(=O)N[C@@H](Cc2ccccc2)C(=O)OCc2ccccc2)CC1", "Potency": "inconclusive [inhibitor, single point]"}
    ]}
  ]
}
